Results from PubChem BioAssay AID624296 (National Center for Advancing Translational Sciences (NCATS), 2012).
Values joined by “and” are separate entries in the source; they are usually repeats but may differ in a detail not shown here. Equal values may be shown once. Among all 350,000 compounds or so, about 9,900 (2.8%) were called active. The inconclusive results got no clear call from the source; some entries with a clear call stand among them for comparison. Calls come from the whole dose curve; as a rule, active = well fitted activation curve with a large enough effect; inconclusive = small, poorly fitted or top-dose-only effect; inactive = no such curve, though single readings can be large or run the other way. Potencies beside an inconclusive call are fits to weak or partial responses and may not hold up.

Assay: A quantitative high throughput screen for small molecules that induce DNA re-replication in MCF 10a normal breast cells. Note: nearly all actives have a fitted effect of over 50% in size.
Conditions: MCF 10A DNA re-replication, Hoechst nuclear intensity, 48 h; series mostly up to 46.1 µM
Potency is the fitted concentration of half-maximal effect; tags give direction and shape of the fitted curve.

SMILES	Potency
O=C(OCc1ccccc1C(F)(F)F)c1ccc(Br)c(S(=O)(=O)N2CCOCC2)c1	inactive
Cc1ccc(N2C(=O)C3CCC(C)(C2=O)C3(C)C)cc1C (configuration not stated)	inactive
CCC(c1nnnn1C1CCCC1)N(Cc1cccs1)Cc1cc2cc(C)ccc2[nH]c1=O (configuration not stated)	inconclusive: 23.1 µM [activator, single point]
CCN(CC)S(=O)(=O)c1ccc(N2CCOCC2)c(NC(=O)C2=COCCO2)c1	inactive
Cc1cc2nc(CCN(Cc3cccnc3)C(=S)Nc3ccccc3)[nH]c2cc1C	active: 16.4 µM
COc1ccccc1N1CCN(C(=O)c2ccc3c(=O)n(Cc4ccco4)c(=S)[nH]c3c2)CC1	inconclusive: 18.4 µM [activator, partial curve, poor fit]
C/C(=N\NC(=O)COc1ccc(C(C)(C)C)cc1)c1ccc2c(c1)OCCO2	inconclusive: 29.1 µM [activator, single point]
Cc1nn(C(C)C(=O)N/N=C/c2ccc(N(C)C)cc2)c(C)c1[N+](=O)[O-] (configuration not stated)	inactive
CCOc1ccc(CCNC(=O)C2CCCN(C(=O)N(C)C)C2)cc1OCC (configuration not stated)	inconclusive: 20.6 µM [activator, single point]
COc1cccc(/C(O)=C2/C(=O)C(=O)N(c3cc(C)on3)C2c2cccs2)c1 (configuration not stated)	inconclusive: 8.2 µM [activator, partial curve]
Cc1ccc(CSCC(=O)N2CCOCC2)cc1	inconclusive: 29.1 µM [activator, single point]
CN1CCN(C2=C(Cl)C(=O)N(c3cccc(Cl)c3)C2=O)CC1	inconclusive: 32.6 µM [activator, partial curve, poor fit]
CC(C)(C)n1nnnc1C(c1cccnc1)N(Cc1ccccc1)Cc1cccs1 (configuration not stated)	inconclusive: 29.1 µM [activator, single point]
N#Cc1ccccc1OCC(=O)Nc1cccc(S(=O)(=O)N2CCCCCC2)c1	inconclusive: 20.6 µM [activator, single point]
CCCSc1nc2sc3c(c2c(=O)n1CC)CC(C)(C)OC3	inconclusive: 16.4 µM [activator, single point]
CCc1ccc(N2CC(C(=O)Nc3ccc(S(=O)(=O)N4CCOCC4)cc3)CC2=O)cc1 (configuration not stated)	inactive
COc1ccc(NC2=C(Cl)C(=O)N(CCc3ccccc3)C2=O)cc1	inactive
COC(=O)c1c(-c2cccs2)csc1NC(=O)c1cccnc1	inconclusive: 18.4 µM [activator, single point]
CN1CCN(S(=O)(=O)c2cccc(C(=O)Nc3sc4c(c3C(N)=O)CCCC4)c2)CC1	inconclusive: 35.5 µM [activator, single point]
CCOC(=O)[C@@H]1[C@H]2COc3cc(OC)ccc3[C@H]2N2C(=O)N(c3ccc(OC)cc3)C(=O)[C@]12C	inactive
COc1c(O)cc2c(c1O)[C@@H]1O[C@@H](CO)[C@@H](O)[C@@H](O)[C@@H]1OC2=O	inactive
O=C(Nc1ccc(F)cc1)c1ccc(CN2CCc3ccccc3C2)cc1	inactive
COc1ccccc1Nc1nc(N2CCCC2)nc(N2CCOCC2)n1	inactive

SMILES	Potency
C=CCc1ccccc1OCC(=O)N/N=C/c1ccc(OC(C)=O)cc1OC(C)=O	inconclusive: 3.26 µM [activator, full curve, poor fit]
COc1ccc(/C=C2\NC(=S)N(CC3CCCO3)C2=O)c(OC)c1 (configuration not stated)	inconclusive: 20.6 µM [activator, single point]
CCCCc1cc(=O)oc2c(C)c(OCC(=O)NCC3CCC(C(=O)O)CC3)ccc12 (configuration not stated)	inconclusive: 0.0046 µM [activator, full curve, poor fit]
O=C(CN1CCCC1)NN=C(c1ccccc1)c1ccccc1	inconclusive: 0.291 µM [activator, full curve, poor fit]
CCCCOC(=O)Nc1ccc(C(=O)OCCC)cc1	inconclusive: 32.6 µM [activator, partial curve, poor fit]
CC(=NNc1nc2ccccc2s1)c1ncccn1	inconclusive: 2.06 µM [activator, partial curve, poor fit]
Cc1ccc(CNC(=O)c2cc3c(-c4ccc(Cl)cc4)nn(C)c3s2)o1	inactive
O=C(Cc1ccc(Br)cc1)Nc1cccc(Cl)c1	inconclusive: 20.6 µM [activator, single point]
O=C(C1CCCN(S(=O)(=O)c2cnc[nH]2)C1)N1CCN(Cc2ccccc2)CC1 (configuration not stated)	inconclusive: 4.61 µM [activator, partial curve, poor fit]
CCOc1cc(S(=O)(=O)N2CCN(Cc3ccccc3)CC2)ccc1Br	inconclusive: 29.1 µM [activator, single point]
CN1CCN(c2ccc(C(CC(N)=O)NC(=O)Cc3cccc4ccccc34)cc2[N+](=O)[O-])CC1 (configuration not stated)	inactive
CC(=O)Nc1c(Cl)c(Cl)c2c(c1Cl)Cc1cc(Cl)ccc1-2	inactive
C=CCN(CC=C)S(=O)(=O)c1ccc(C(=O)Nc2nnc(CSC)o2)cc1	inconclusive: 4.61 µM [activator, full curve, poor fit]
Cc1cc(C(=O)Nc2c(F)c(F)c(F)c(F)c2F)n(-c2ccccc2)n1	inconclusive: 0.731 µM [activator, partial curve, poor fit]
Cc1ccc2[nH]c(=O)c3cc(C(=O)N(CCCOC(C)C)Cc4ccco4)sc3c2c1	inconclusive: 16.4 µM [activator, single point]
CCOc1ccc(C2C3=C(CCCC3=O)Nc3ccc4ncccc4c32)cc1 (configuration not stated)	inconclusive: 10.3 µM [activator, partial curve, poor fit]
CS(=O)(=O)N1CCCC(C(=O)Nc2ccc(F)cc2)C1 (configuration not stated)	inconclusive: 4.11 µM [activator, single point]
C=CCNC(=O)c1ccccc1NC(=O)C1CC(=O)N(C(C)C)C1 (configuration not stated)	inconclusive: 3.66 µM [activator, single point]
CCS(=O)(=O)N1Cc2ccccc2CC1C(=O)NCCc1c[nH]c2ccccc12 (configuration not stated)	inactive
C(=N/N1CCN(c2ccccc2)CC1)/c1ccncc1	inconclusive: 32.6 µM [activator, partial curve, poor fit]
O=C(NCc1ccncc1)C(=O)NCC1OCCN1S(=O)(=O)c1ccc(Br)cc1 (configuration not stated)	active: 18.4 µM
O=C(Cc1cccc2ccccc12)Nc1nc(-c2cccc([N+](=O)[O-])c2)cs1	inconclusive: 5.8 µM [activator, partial curve]
COc1ccc(C2=NCCc3cc(OC)c(OC)cc32)cc1	inactive

SMILES	Potency
COC(=O)c1c(NC(=O)CSc2nnnn2-c2ccccc2)sc2c1CCC(C(C)(C)C)C2 (configuration not stated)	inconclusive: 18.4 µM [activator, single point]
C/C(=N\NC(=O)C(=O)Nc1cccc(Cl)c1C)c1ccncc1	inactive
Cc1ccc(S(=O)(=O)N2CCN(C(=O)c3ccc(Br)o3)CC2)c(C)c1	inactive
CCN(CC)S(=O)(=O)c1ccc(N2CCN(C)CC2)c(NC(=O)CSCC(=O)Nc2cccc(C)c2)c1	inconclusive: 29.1 µM [activator, single point]
C=CCc1cc(OC)ccc1OCC(O)CN1CCN(c2ccc(OC)cc2)CC1 (configuration not stated)	inactive and inconclusive: 20.6 µM [activator, partial curve, poor fit]
CC(=O)n1cc([C@@H]2C=C(C(=O)N3CCN(Cc4ccc5c(c4)OCO5)CC3)O[C@H](OCCCCO)C2)c2ccccc21	inconclusive: 25.9 µM [activator, partial curve, poor fit]
O=C1CC2(CCCCC2)Oc2ccccc21	inconclusive: 0.0046 µM [activator, full curve, poor fit]
Cc1onc(-c2ccccc2Cl)c1C(=O)NCc1nc(-c2ccc(C(F)(F)F)cc2)no1	inconclusive: 16.4 µM [activator, single point]
CCCCCCNc1nc(Cl)nc(NC(C)(C)CO)n1	inconclusive: 0.231 µM [activator, full curve, poor fit]
O=c1cc(-c2ccccc2)c2ccc(O)cc2o1	inactive
CN(C(=O)c1cccc(NC(=O)C2CCCN(C(=O)OC(C)(C)C)C2)c1)C1CCC1 (configuration not stated)	inconclusive: 20.6 µM [activator, partial curve, poor fit]
Cc1nc(-c2ccc(NC(=O)c3ccc(Br)o3)cc2)cs1	inactive
Cc1oc2cc(Br)c(O)c(Br)c2c1-c1ccccc1	inconclusive: 29.1 µM [activator, single point]
CCn1c(CC(=O)Nc2ccccc2)nnc1SCC(=O)Nc1nnc(C)s1	inconclusive: 18.4 µM [activator, single point]
CC(=O)N/C(=C\c1ccccc1)C(=O)N1CCOCC1	inconclusive: 29.1 µM [activator, single point]
O=C(CN1CC[n+]2c(-c3ccccc3)csc21)c1ccc(Br)cc1	inactive
Cc1c(C(=O)N2CCN(C)CC2)oc2ccc(Br)cc12	inconclusive: 23.1 µM [activator, single point]
CC(C)c1ccccc1OCCCCCN1CCOCC1	inconclusive: 7.31 µM [activator, partial curve, poor fit]
c1ccc(CSc2ncnc3c2oc2ccccc23)cc1	inconclusive: 29.1 µM [activator, single point]
CC1Cc2ccccc2N1C(=O)CSc1nnc(N)s1 (configuration not stated)	inactive
CCn1c(SCC(=O)NC(=O)NCc2ccco2)nc2sc(C)c(C)c2c1=O	inconclusive: 29.1 µM [activator, single point]
